Laboratory results taken from PMC4336329 (PLoS ONE, 2015).
Hit rate of the full screen: of about 310,000 compounds, about 2,200 (0.71%) showed an effect of 50% or more. The effect is printed as a negative number. This is one part of the list.

Each compound was assayed against human ether-à-go-go-related gene (hERG) potassium channel (human, UniProt Q12809) (assay: primary screen, population patch clamp on CHO cells stably expressing hERG).
Chain of human ether-à-go-go-related gene (hERG) potassium channel (Q12809 whole entry, looked up): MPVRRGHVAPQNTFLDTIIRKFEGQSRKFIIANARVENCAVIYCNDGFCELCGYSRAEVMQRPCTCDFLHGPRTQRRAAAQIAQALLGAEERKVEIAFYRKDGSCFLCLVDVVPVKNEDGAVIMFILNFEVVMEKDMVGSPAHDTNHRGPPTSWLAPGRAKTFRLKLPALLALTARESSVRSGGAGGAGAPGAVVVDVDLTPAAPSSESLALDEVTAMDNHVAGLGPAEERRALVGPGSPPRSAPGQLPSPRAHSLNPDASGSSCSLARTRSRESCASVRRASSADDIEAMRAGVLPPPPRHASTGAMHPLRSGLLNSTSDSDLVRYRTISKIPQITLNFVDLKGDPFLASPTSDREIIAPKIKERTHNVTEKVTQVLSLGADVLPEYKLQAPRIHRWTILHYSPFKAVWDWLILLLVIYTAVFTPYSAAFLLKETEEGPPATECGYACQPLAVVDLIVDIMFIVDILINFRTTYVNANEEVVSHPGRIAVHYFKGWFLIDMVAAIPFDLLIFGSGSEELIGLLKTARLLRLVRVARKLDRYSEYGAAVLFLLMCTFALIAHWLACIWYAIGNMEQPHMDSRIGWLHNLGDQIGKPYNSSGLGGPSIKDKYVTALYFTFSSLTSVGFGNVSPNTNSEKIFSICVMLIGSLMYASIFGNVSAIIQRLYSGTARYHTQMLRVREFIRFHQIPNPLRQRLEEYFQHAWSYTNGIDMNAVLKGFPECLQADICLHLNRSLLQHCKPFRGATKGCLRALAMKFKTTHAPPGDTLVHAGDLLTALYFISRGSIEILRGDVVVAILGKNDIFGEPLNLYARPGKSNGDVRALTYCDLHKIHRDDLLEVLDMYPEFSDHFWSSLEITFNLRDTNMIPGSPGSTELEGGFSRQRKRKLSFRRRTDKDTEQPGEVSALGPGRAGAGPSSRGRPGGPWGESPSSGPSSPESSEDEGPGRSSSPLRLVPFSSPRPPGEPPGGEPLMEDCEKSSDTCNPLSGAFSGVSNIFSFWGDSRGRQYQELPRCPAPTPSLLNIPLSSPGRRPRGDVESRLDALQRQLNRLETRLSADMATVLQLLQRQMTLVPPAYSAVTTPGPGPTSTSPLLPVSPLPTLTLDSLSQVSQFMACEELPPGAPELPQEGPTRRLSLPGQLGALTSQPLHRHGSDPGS

| SMILES | hERG current change (%, negative = inhibition) at 1uM |
| --- | --- |
| O=C(/C=C/c1ccc(O)c(O)c1)OCCc1ccccc1 | 10.3% |
| CC(C)CCN1CN(S(=O)(=O)c2cccs2)c2nc3ccccc3nc21 | 16.3% |
| Cc1nc2nc(C)c(CCC(=O)N3CCN(c4ccccc4)CC3)c(C)n2n1 | -23.4% |
| COc1cccc(-n2c(O)c(C=NCc3ccccn3)c3ccccc3c2=O)c1 | 3.45% |
| COc1ccc(S(=O)(=O)n2nc(C)c(S(=O)(=O)N3CCOCC3)c2C)cc1OC | 15.9% |
| Cc1cc(C)cc(N(CC(=O)N2CCCCCC2)S(C)(=O)=O)c1 | 15.1% |
| Cc1ccc(C(=O)NCCONC(=O)c2ccc(C)cc2)cc1 | 14.1% |
| COc1cccc(-c2nc(CS(=O)CC(=O)NC3CC3)c(C)o2)c1 (centres unmarked) | 8.42% |
| CCCCNC(=S)Nc1ccc(SC(F)F)cc1 | 4.93% |
| CCCCN(C(=O)COC(=O)CSc1ccc([N+](=O)[O-])cc1)c1c(N)n(CCC)c(=O)[nH]c1=O | 13.3% |
| Cc1ccccc1C(=O)Nc1ccc(N2CCCC2)cc1.Cl | 7.79% |
| CCc1nc(CN(C)C(=O)C2CCC(=O)N(CCc3cccc(F)c3)C2)no1 (centres unmarked) | 0.983% |
| O=C(c1cc(-c2ccccc2Cl)on1)N1CCCC1 | 5.55% |
| COc1ccc(C(=O)N/N=C/c2ccc(OC(=O)c3ccccc3)cc2)cc1 | 14.2% |
| COc1cccc(C2CC(c3ccccc3)=NN2S(=O)(=O)c2ccccc2)c1OC (centres unmarked) | 12.7% |
| CCOC(=O)c1[nH]c(C)c(C(=O)NC2CCN(C(=O)OCC)CC2)c1C | 9.39% |
| CC(NC(=O)c1c(O)c2ccccc2[nH]c1=O)c1ccccc1 (centres unmarked) | 15.7% |
| COc1ccc(OC)c(-c2c(=O)n(OCc3ccccc3Br)c3ccccc3[n+]2[O-])c1 | 8.69% |
| COc1ccc(/C=N/NC(=O)CCN2CCN(c3ccccc3)CC2)c(OC)c1OC | -2.99% |

| SMILES | hERG current change (%, negative = inhibition) at 1uM |
| --- | --- |
| COc1ccc(CCNC(=O)CC2Nc3ccccc3NC2=O)cc1OC (centres unmarked) | 12.7% |
| O=C(c1ccc2c(c1)OCO2)N1CCC2(CC1)OCCO2 | -3.86% |
| CCN(CC(=O)Nc1ccc2c(c1)OCCO2)C(=O)C1CC(=O)N(c2ccc(OC)cc2OC)C1 (centres unmarked) | -0.369% |
| CCOC(=O)C(NC(=O)NCc1ccc(F)cc1)(OCC)C(F)(F)F (centres unmarked) | 11.3% |
| CCNC(=S)N1CCN(c2nc(-c3cccc(OC)c3)cs2)CC1 | 12.5% |
| O=C(c1ccc(-c2ccccc2)cc1)C1CCCN(C(=O)Cn2cncn2)C1 (centres unmarked) | 8.52% |
| O=C(CN1C(=O)NC2(CCOc3ccccc32)C1=O)Nc1ccc2c(c1)OCCO2 (centres unmarked) | 10.3% |
| O=C(CCN1C(=O)/C(=C/c2ccc3c(c2)OCO3)SC1=S)NNC(=O)c1cccnc1 | 14.1% |
| O=C(N/N=C/c1cccnc1)c1ccc([N+](=O)[O-])cc1 | -5.8% |
| CCc1ccc(CN2CCC(n3nccc3NC(=O)c3ccc4c(c3)OCO4)CC2)cc1 | -58.4% |
| CCOc1cc(C(=O)NC)cc(Br)c1OC | 11.7% |
| Cc1ccc2c(c1)-c1nc3ccccc3cc1C2=NC1CCCCC1 | 17.3% |
| CS(=O)(=O)N1CCN(C(=O)c2ccc(-c3ccccc3)cc2)CC1 | 9.18% |
| Cc1cc(-c2n[nH]c(=S)n2/N=C/c2ccccc2[N+](=O)[O-])n[nH]1 | 12% |
| Cc1c(C(=O)OCC(=O)N(C)Cc2ccccc2)oc2ccccc12 | 6.88% |
| COc1cccc(NS(=O)(=O)c2c(C)nc3sccn3c2=O)c1 | 9.38% |
| O=C(Nc1ccccc1)c1c(F)c(F)c(F)c(F)c1F | 3.84% |
| O=C(NC(C(=O)N/N=C/c1ccccc1)c1n[nH]c(=O)c2ccccc12)c1ccccc1 (centres unmarked) | 9.47% |
| CCc1ccccc1NC(=O)CSc1nnc([C@@H](NC(=O)OC(C)(C)C)C(C)C)o1 | 5.92% |

| SMILES | hERG current change (%, negative = inhibition) at 1uM |
| --- | --- |
| COc1ccc2oc(C(=O)OCC(=O)N(C)CC(=O)Nc3ccc(F)cc3)c(C)c2c1 | 12.4% |
| Cc1cc(C(=O)N(C)Cc2c(F)cccc2Cl)c2ccccc2n1 | -6.52% |
| Nn1c(SCC(=O)Nc2ccc3c(c2)OCCO3)nnc(CCC(=O)O)c1=O | 10.7% |
| Cc1ccc(C)c(NC(=O)C(=O)NCc2ccccn2)c1 | 6.08% |
| O=C(CSCCO)Nc1ccc(C2CCCCC2)cc1 | -2.66% |
| CC1CCN(C(=O)c2scc3c2OCCO3)CC1 | -3.72% |
| C=CCCCN(Cc1ccccc1)S(=O)(=O)c1ccccc1Br | 7.98% |
| O=C(NCCN1CCOCC1)c1cc(-c2ccc(F)cc2)nc2ccccc12 | -1.43% |
| COc1cccc(/C=c2\s/c(=C\C(=O)C(C)(C)C)[nH]c2=O)c1 | 4.63% |
| CCN(CC)C(=O)C1CCN(c2ncnc3c2cnn3-c2ccc(C)cc2C)CC1 | 8.99% |
| Cc1cc(Cl)c(S(=O)(=O)N2CC(C)OC(C)C2)cc1OCC(N)=O (centres unmarked) | 0.206% |
| Cc1cc(NC(=O)CSc2ccc3nnc(-c4cccc(F)c4)n3n2)no1 | 6.7% |
| Cc1ccccc1NC(=O)c1nn(-c2ccc(F)c(F)c2)ccc1=O | 7.26% |
| N#CC12CCCCC1CC1CCCCC1(C#N)N2Cc1cccnc1 (centres unmarked) | -2.82% |
| CCn1c(SCC(=O)Nc2sc3c(c2C#N)CCCC3)nnc1-c1ccncc1 | -9.94% |
| Cc1ccc2nc(SCC(=O)Nc3ccc(C)c([N+](=O)[O-])c3)[nH]c2c1 | 10.1% |
| CC(NC(=O)CN1C(=O)NC2(CCCC2)C1=O)c1ccc2ccccc2c1 (centres unmarked) | 5.74% |
| COc1ccc(OC)c(NC(=O)c2ccc3c(=O)n(CCc4ccccc4)c(=S)[nH]c3c2)c1 | 12.5% |
